The whole screen tested about 340,000 compounds, of which about 530 (0.16%) were called active. Inconclusive results, whose numbers are uncertain, are shown with a selection of clear calls. Cut-off read from the data, not from the text of the source: active = activity change below about -80%; inconclusive = between about -30% and that limit; inactive = weaker than that.
Experiment: Small Molecules that selectively kill Giardia lamblia: qHTS;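 note: parasites exposed to compound for two days anaerobically before the ATP read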
Conditions: Giardia lamblia trophozoite viability; at 7.66 µM; stronger effect = lower value
In short: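 Giardia trophozoites, 100 cells per well, were exposed to compounds for 48 hrs at 37 deg C under anaerobic conditions; viability was then read as ATP content by bioluminescence after 15-30 min at room temperature.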
% is set by controls: 0 for no effect and ±100 for the full control effect.

Row | SMILES | activity change
1 | COc1ccccc1OCCNC(=O)c1c(-c2ccccc2Cl)noc1C | inactive: 24.1%
2 | COc1ccc(OCC(=O)NC2CCCc3ccccc32)cc1 (configuration not stated) | inconclusive: -30.7% [inhibitor]
3 | Nc1nc2n(n1)C(c1cccc(Br)c1)CC(c1ccc(F)cc1)N2 (configuration not stated) | inconclusive: -36.6% [inhibitor]
4 | COC(=O)COc1ccc2c(-c3ccc(OC)cc3)cc(=O)oc2c1 | inactive: 3.66%
5 | O=C(NCC(=O)N1CCOCC1)c1ccc(Cl)c(Cl)c1 | inactive: 1.57%
6 | Nc1ccc2nc(-c3ccccc3)sc2c1 | inconclusive: -60.4% [inhibitor]
7 | Cc1ccc(S(=O)(=O)N(C)C[C@@H]2Oc3c(NS(C)(=O)=O)cccc3C(=O)N([C@H](C)CO)C[C@@H]2C)cc1 | inconclusive: -38.3% [inhibitor]
8 | CC(C)c1c(C(=O)N/N=C/c2ccc(-c3ccccc3)cc2)nnn1-c1nonc1N | inconclusive: -39.8% [inhibitor]
9 | c1ccc2[nH]c(SCC3CCCCO3)nc2c1 (configuration not stated) | inactive: -8.86%
10 | Cc1c[n+]([O-])ccc1[N+](=O)[O-] | inconclusive: -54.8% [inhibitor]
11 | COc1cc2c(cc1OC)CN(Cc1cc(=O)oc3c(C)c(C)ccc13)CC2 | inconclusive: -45.6% [inhibitor]
12 | N#Cc1sc(NCc2cccc(Cl)c2)nc1Cl | inconclusive: -50.9% [inhibitor]
13 | C/C(=N\Nc1nc2ccc(Cl)cc2o1)c1ccccc1 | inconclusive: -32.9% [inhibitor]
14 | C=CCn1c2ccccc2n2nc(C)c(=O)nc12 | inactive: 4.69%
15 | CC[C@@H]1C(c2ccccc2)=NN(c2ccc(Br)cc2)[C@H]1C(=O)N1CCOC1=O | inconclusive: -37.2% [inhibitor]
16 | Fc1ccc(N2CCN(Cc3cn[nH]c3-c3ccccc3)CC2)cc1 | inactive: -13.9%
17 | Cc1ccc(NC(=O)c2oc3ccccc3c2COC(C)C)cc1S(=O)(=O)N1CCOCC1 | inactive: 5.21%
18 | Cc1n[nH]c(C)c1S(=O)(=O)N1CCCC(C(=O)N2CCN(c3ccc(Cl)cc3)CC2)C1 (configuration not stated) | inactive: -13.6%
19 | CC(Sc1ccsc1[N+](=O)[O-])C(=O)N1CCN(c2ccccn2)CC1 (configuration not stated) | inconclusive: -59.9% [inhibitor]
20 | CCCc1nc2ccccc2c(C(=O)OCC(=O)NCc2ccc3c(c2)OCO3)c1CC | inconclusive: -33% [inhibitor]
21 | CS(=O)Cc1cc(Sc2ccccc2)nc(-c2ccncc2)n1 (configuration not stated) | inconclusive: -31.8% [inhibitor]
22 | Cc1noc(C)c1C(=O)OCC(=O)c1cc(C)n(Cc2ccccc2Cl)c1C | inconclusive: -36.8% [inhibitor]
23 | C[C@@H](CO)NC(=O)c1ccc2c3n(nc2c1)-c1ccccc1CO3 | inconclusive: -79.2% [inhibitor]
24 | Cc1ccc(-c2nnc(NC(=O)c3ccc([N+](=O)[O-])o3)o2)c(C)c1 | active: -81.2%
25 | Cc1ccc(NC(=S)N/N=C/c2c(C)[nH]c3ccccc23)cc1 | inactive: -1.77%
26 | S=C(Nc1ccc(Br)cc1)N1CCn2cccc2C1c1cccnc1 (configuration not stated) | inactive: 3.86%

Row | SMILES | activity change
27 | CCN(CC)S(=O)(=O)c1ccc(NC(=O)CSc2nnc3c(n2)[nH]c2ccccc23)cc1 | inconclusive: -32.1% [inhibitor]
28 | Cc1cc([N+](=O)[O-])nn1CC(=O)N1CCOCC1 | inconclusive: -37.2% [inhibitor]
29 | COc1cc2c(cc1NC(=O)CCCCCN1C(=O)CCC1=O)oc1ccccc12 | inactive: 6.11%
30 | CCOc1ncccc1C(=O)Nc1cc(C(F)(F)F)ccc1N1CCOCC1 | inactive: -16.1%
31 | C[C@@H]1CN([C@@H](C)CO)C(=O)c2cccc(NS(=O)(=O)c3cccs3)c2O[C@H]1CN(C)Cc1ccc(C(F)(F)F)cc1 | inconclusive: -55.6% [inhibitor]
32 | O=C(c1ccco1)N1CCN(c2c([N+](=O)[O-])nn(-c3ccc(Cl)cc3)[n+]2[O-])CC1 | inconclusive: -75.9% [inhibitor]
33 | COc1ccc(NC(=S)N2CCN(C(c3ccccc3)c3ccccc3)CC2)c(OC)c1 | inactive: -6.45%
34 | CN(C)S(=O)(=O)c1ccc(C(=O)OCC(=O)NC(=O)NC2CCCC2)cc1 | inactive: 5.7%
35 | COc1cc([C@@H]2CC=C(C(=O)O)[C@H](c3ccc(F)cc3)N2S(=O)(=O)c2ccc(C)cc2)cc(OC)c1OC | inconclusive: -43.6% [inhibitor]
36 | CCOc1cc(CNc2ccc(N3CCOCC3)cc2)cc(Br)c1OCC | inactive: -2.94%
37 | COc1ccc(NC(=O)c2sc3nc(C)nc(N4CCOCC4)c3c2C)c(OC)c1 | inactive: 12.6%
38 | COc1ccc(NC(=O)CSCc2ccccc2C)cc1 | inconclusive: -31.8% [inhibitor]
39 | O=C(O)C1=CC[C@@H](c2ccc(Cl)cc2)N(S(=O)(=O)c2ccc(Cl)cc2)[C@H]1c1cccc(Cl)c1 | inconclusive: -44.5% [inhibitor]
40 | CN(C)/C=C(\C=O)c1c(Cl)cccc1Cl | inconclusive: -34.7% [inhibitor]
41 | O=C(N/N=C/c1ccccn1)c1cc(-c2ccncc2)nc2ccccc12 | inactive: -15.4%
42 | O=S(=O)(Nc1cccc(-c2ccc3nncn3n2)c1)c1cccc(F)c1 | inactive: 2.15%
43 | O=C(/C=C\c1ccco1)Nc1cc([N+](=O)[O-])ccc1F | inactive: -29.2%
44 | O=C(c1ccccc1)N1CCC(c2nc3c(nnn3Cc3ccco3)c(=O)[nH]2)CC1 | inconclusive: -39.9% [inhibitor]
45 | CCC(C(=O)NCc1cccnc1)c1ccccc1 (configuration not stated) | inconclusive: -31.5% [inhibitor]
46 | O=C(COc1ccc(F)cc1Cl)NC1CCCCCC1 | inactive: -18.1%
47 | COC(=O)c1ccccc1-n1c(CCC(=O)O)ccc1-c1ccc(F)cc1 | inconclusive: -30.9% [inhibitor]
48 | COc1ccc2c(c1)cc(C(=O)N/N=C/c1c(O)c(C(=O)O)cc3ccccc13)n2C | inconclusive: -30.2% [inhibitor]
49 | CCC(C(=O)N1CCOCC1)n1c2ccccc2c2nc(=O)cc(C)n21 (configuration not stated) | inactive: -16.3%
50 | COc1ccc(S(=O)(=O)N2CCCCCC2)cc1NC(C)C(=O)Nc1ccc(NC(C)=O)cc1 (configuration not stated) | inconclusive: -37.2% [inhibitor]
51 | CSc1nsc(SCC(=O)NCc2ccccc2)n1 | inconclusive: -44% [inhibitor]
52 | COCCn1c(C)cc(C(=O)COC(=O)c2n[nH]c3ccccc23)c1C | inconclusive: -77.6% [inhibitor]

Row | SMILES | activity change
53 | Cc1cc(SCc2ccc(Cl)cc2Cl)nc(=O)[nH]1 | inactive: -4.59%
54 | CCCN(CC(=O)Nc1ccccc1OC)C(=O)c1ccncc1 | inconclusive: -44.3% [inhibitor]
55 | COc1ccc(NC(=O)NCc2ccncc2)c(OC)c1 | inconclusive: -43.5% [inhibitor]
56 | N#CCCN1CCN(C(=S)c2ccc(-c3ccc(Cl)cc3)o2)CC1 | inactive: 16.6%
57 | Cc1oc2cc(O)ccc2c(=O)c1Oc1ccccc1Br | inconclusive: -50.6% [inhibitor]
58 | O=C(Cn1ccc2ccccc2c1=O)NCC(=O)N1CCN(c2ccc(F)cc2)CC1 | inconclusive: -33.8% [inhibitor]
59 | O=C(CS(=O)CC(=O)NC12CC3CC(CC(C3)C1)C2)Nc1ccc(F)cc1 (configuration not stated) | inconclusive: -32.5% [inhibitor]
60 | Cc1ccc(OCC(=O)c2cc(C)n(C)c2C)c([N+](=O)[O-])n1 | inconclusive: -71.8% [inhibitor]
61 | CCOc1ccc2c(c1)[N+](C)(C)C(C)(C)C=C2C | inconclusive: -36.3% [inhibitor]
62 | CC(C)(O)C#Cc1ccc(CNC[C@H]2O[C@@H](n3cnc4c(N)ncnc43)[C@H](O)[C@@H]2O)s1 | inconclusive: -36.9% [inhibitor]
63 | CCOC(=O)c1sc2nc(C)nc(SCC(=O)N(CC)C3CCS(=O)(=O)C3)c2c1C (configuration not stated) | inactive: -3.32%
64 | COc1ccc(CNC(=O)C2CCCN(S(=O)(=O)N3CC(C)CC(C)C3)C2)c(OC)c1 (configuration not stated) | inconclusive: -35.7% [inhibitor]
65 | CCOc1ccc2nc(N3C(=O)/C(=C/c4ccccc4)NC3=S)sc2c1 | inconclusive: -32.6% [inhibitor]
66 | CCN1C(=O)[C@H]2[C@@H](c3ccc(-c4ccc(C(C)=O)cc4)cc3)N[C@@](Cc3ccccc3)(C(=O)OC)[C@H]2C1=O | inactive: 36.9%
67 | Cc1ccccc1C(=O)N1CCN(c2ccc(NC(=O)c3ccc([N+](=O)[O-])o3)cc2)CC1 | active: -90.5%
68 | O=C(Nc1nc(-c2nc3ccccc3s2)cs1)c1ccco1 | inconclusive: -31.1% [inhibitor]
69 | Cc1ccsc1/C=N\Nc1cn[nH]c(=O)c1Cl | inactive: 1.26%
70 | CC(C)(C)c1ccc(S(=O)(=O)N2CCN(c3nc(-c4cccs4)nc4ccccc34)CC2)cc1 | inconclusive: -30.5% [inhibitor]
71 | Cc1ccc(S(=O)(=O)CCC(=O)OCC(=O)Nc2cc(S(=O)(=O)N3CCOCC3)ccc2C)cc1 | inactive: 5.96%
72 | Cc1cc(C(=O)COC(=O)C2=COCCO2)c(C)n1-c1ccccc1 | inconclusive: -33.5% [inhibitor]
73 | CCOc1cc(/C=N/Nc2cccc(C(=O)O)c2)ccc1OCC(=O)N1CCCCC1 | inactive: 10.4%
74 | CCc1ccc(N/C(SCc2cccc(F)c2)=C(/C#N)C(=O)NCc2ccco2)cc1 | inactive: -4.99%
75 | COc1ccc(CC(=O)Nc2cc(C)on2)cc1OC | inconclusive: -31.4% [inhibitor]
76 | O=C(Nc1cccc(F)c1)c1cc(-c2ccco2)nc2ccccc12 | inconclusive: -42.6% [inhibitor]
77 | CC(=O)Nc1ccc(-c2csc(N/N=C(/C)c3ccccc3)n2)cc1 | inconclusive: -34.8% [inhibitor]
